Laboratory results published in PubChem BioAssay AID1461 (National Center for Advancing Translational Sciences (NCATS), 2008).
The whole screen tested about 220,000 compounds, of which about 2,300 (1%) were called active. The shares of active, inactive and inconclusive entries below differ from those in the screen. The call rests on the fitted dose curve; in most records, active means well fitted inhibition curve with a large enough effect; inconclusive means small, poorly fitted or top-dose-only effect, or effect the other way; inactive means no such curve, though single readings can be large or run the other way. No potency is given beside an inconclusive call; the fits are too rough.

Target: Neuropeptide S receptor (Homo sapiens) (UniProt Q6W5P4)
Experiment: qHTS Assay for Antagonists of the Neuropeptide S Receptor: cAMP Signal Transduction; further: nearly all actives have a fitted effect of over 50% in size
Details: CHO-NPSR cells, cAMP TR-FRET, antagonist mode; series mostly up to 38.3 µM
Potency means the concentration at half of the fitted maximal effect; tags describe the fitted curve by direction and shape.

UniProt Q6W5P4, sequence (Q6W5P4 whole entry, looked up): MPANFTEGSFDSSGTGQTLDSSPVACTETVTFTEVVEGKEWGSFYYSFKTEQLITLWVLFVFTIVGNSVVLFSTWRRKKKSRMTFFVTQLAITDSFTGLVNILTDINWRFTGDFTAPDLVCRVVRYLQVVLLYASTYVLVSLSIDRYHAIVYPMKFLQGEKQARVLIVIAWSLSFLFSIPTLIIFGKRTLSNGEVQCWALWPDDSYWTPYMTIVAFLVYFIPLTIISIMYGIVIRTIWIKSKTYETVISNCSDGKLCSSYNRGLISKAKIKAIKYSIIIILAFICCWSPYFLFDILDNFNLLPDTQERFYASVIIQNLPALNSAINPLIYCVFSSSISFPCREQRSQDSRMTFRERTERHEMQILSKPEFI

| Structure (SMILES) | Potency |
| --- | --- |
| CCOP(=O)(OCC)C(Nc1cccc(C(F)(F)F)c1)c1ccc(C)cc1 (stereo not given) | inconclusive [inhibitor, single point] |
| CSc1ccc(C(=O)C2CCCN(Cc3cc4ccccc4[nH]3)C2)cc1 (stereo not given) | inconclusive [activator, single point] |
| O=C1NC(=O)N(Cc2ccco2)C(=O)/C1=C\c1cccn1CCOc1ccc(Cl)cc1 | inconclusive [inhibitor, single point] |
| Oc1ccc2c3c1O[C@H]1c4oc5ccccc5c4C[C@@]4(O)C(C2)N(CC2CC2)CCC314 (stereo not given in full) | inactive |
| COc1ccc(C=C2C(=O)N(C)C(=O)N(C)C2=O)cc1CSc1ccccn1 | inactive |
| CNCCCN1c2ccccc2CCc2ccccc21 | inconclusive [inhibitor, single point] |
| C/C(=N/OC(=O)N(C)C)c1ncc(C(F)(F)F)cc1N1CCOCC1 | inactive |
| COc1cc(OC)c(OC)cc1/C=C1\C(=O)NC(=O)N(Cc2ccccc2)C1=O | inactive |
| CC(C)c1ccc(C(O)P(=O)(OCc2ccccc2)c2ccc(N(C)C)cc2)cc1 (stereo not given) | inconclusive [inhibitor, single point] |
| O=C1NC(=O)N(Cc2ccco2)C(=O)/C1=C/C=C/c1ccco1 | inconclusive [inhibitor, single point] |
| Cc1cccc(-n2c(=S)[nH]c3ccccc3c2=O)n1 | inactive |
| COC(=O)C1C2c3ccccc3OC1(C)N=c1s/c(=C/c3cnn(C)c3C)c(=O)n12 (stereo not given) | inactive |
| Cn1c(O)c(C(=Nc2ccc(F)cc2)c2ccccc2Cl)c(=O)n(C)c1=O | inactive |
| CN1C(=O)NC(=O)/C(=C\c2ccc([N+](=O)[O-])o2)C1=O | inactive |
| O=[N+]([O-])c1ccc(N2CCCCCC2)c2ncccc12 | inactive |
| Nc1c(C(=O)NCc2ccco2)c2nc3ccccc3nc2n1CCN1CCCCC1 | inconclusive [inhibitor, single point] |
| COc1ccc(OC)c(CN2CCN(C(=O)COc3cccc(C)c3)CC2)c1 | inconclusive [inhibitor, partial curve] |
| COCCCn1c(N)c(C(=O)NCCC(C)C)c2nc3ccccc3nc21 | active: 10 µM |
| COc1ccc(N2C(=O)/C(=C/C=C/c3ccccc3[N+](=O)[O-])C(=O)NC2=S)cc1 | active: 10 µM |
| COc1ccc(-c2nc3ccccc3n2OC(=O)N(C)C)cc1 | inconclusive [inhibitor, single point] |
| CC(C)C[C@H]1C(=O)N2CCCC2[C@]2(O)O[C@](NC(=O)[C@@H]3C=C4c5cccc6[nH]cc(c56)CC4N(C)C3)(C(C)C)C(=O)N12 (stereo not given in full) | inconclusive [inhibitor, full curve, poor fit] |
| Cc1cc(C)cc(N2C(=O)NC(=O)/C(=C/c3cccn3-c3ccc(Cl)cc3)C2=O)c1 | inactive |
| CC(C)[C@H]1C(=O)N2CCC[C@H]2[C@]2(O)O[C@](NC(=O)[C@@H]3C=C4c5cccc6[nH]cc(c56)C[C@H]4N(C)C3)(C(C)C)C(=O)N12 | active: 1 µM |

| Structure (SMILES) | Potency |
| --- | --- |
| CCOc1cc(-c2c(C#N)c(=O)[nH]c3c2c(C)nn3-c2ccc(F)cc2)ccc1O | inconclusive [inhibitor, single point] |
| CCCN1CCc2cc(O)cc3c2C1Cc1ccc(O)c(O)c1-3 (stereo not given) | inconclusive [inhibitor, partial curve] |
| Cc1ccc(C(c2nnnn2Cc2ccccc2)N2CC=C(c3ccc(F)cc3)CC2)cc1 (stereo not given) | inactive |
| O=C1NC(=O)N(Cc2ccccc2)C(=O)/C1=C/c1cnc(-c2ccccc2)nc1 | active: 10 µM |
| O=C(CNC(=O)c1ccccc1)Nc1ccc(Br)cc1C(=O)c1ccccc1 | inconclusive [inhibitor, single point] |
| O=C(Cn1c(=O)c(C(F)(F)F)nc2ccccc21)N1CCC2(CC1)OCCO2 | inactive |
| CN(C(=O)Oc1ccc(C(C)(C)C)cc1)c1ccccc1 | inconclusive [inhibitor, single point] |
| Cc1ccc(N2C(=O)NC(=O)/C(=C\c3ccc([N+](=O)[O-])o3)C2=O)cc1 | inactive |
| O=C(c1cc(-c2ccccc2)on1)N1CCC2(CC1)OCCO2 | inactive |
| CCC1(C)CC(=O)NC1=O (stereo not given) | inconclusive [inhibitor, single point] |
| O=c1c2ccccc2[se]n1-c1ccccc1 | inconclusive [inhibitor, partial curve] |
| O=C(Oc1c(Cl)cc(Cl)c2ccccc12)N1CCCCC1 | inconclusive [inhibitor, single point] |
| COc1ccc(N=C(C)c2c(O)n(C)c(=O)n(C)c2=O)c(OC)c1 | inconclusive [inhibitor, single point] |
| CN[C@H]1C[C@H]2O[C@@](C)([C@H]1OC)n1c3ccccc3c3c4c(c5c6ccccc6n2c5c31)C(=O)NC4 | active: 6.31 µM |
| Cc1cccc(N2C(=O)NC(=O)/C(=C\C=C\c3ccco3)C2=O)c1 | inconclusive [inhibitor, full curve, poor fit] |
| CC(C)CCNC(=O)c1c(N)n(Cc2ccc3c(c2)OCO3)c2nc3ccccc3nc12 | inconclusive [inhibitor, single point] |
| O=C(CNC(=O)OCc1ccccc1)Nc1ccc(Br)cc1C(=O)c1ccccc1 | inconclusive [inhibitor, single point] |
| O=C(c1cccs1)N1C2CCC1CC(O)(c1cccnc1)C2 (stereo not given) | inconclusive [inhibitor, partial curve] |
| O=C(Oc1ccc(Br)cc1C(=S)N1CCCC1)c1ccccc1Cl | inconclusive [inhibitor, single point] |
| COC(=O)N1CCN(C(=O)Cc2ccc(Cl)c(Cl)c2)C(CN2CCCC2)C1 (stereo not given) | inconclusive [inhibitor, partial curve] |
| CCOC(=O)c1cc(C)sc1/N=C/C1C(=O)NC(=S)NC1=O | inactive |
| COC(=O)C1=Nc2ccccc2/C1=C\c1c(O)n(-c2ccc(Br)cc2)c(=O)[nH]c1=O | inactive |
